Results reported in ChEMBL document CHEMBL4888484, “Replenishing the malaria drug discovery pipeline: Screening and hit evaluation of the MMV Hit Generation Library 1 (HGL1) against asexual blood stage Plasmodium falciparum ,using a nano luciferase reporter read-out” (2022).
In all, about 150,000 compounds went through this assay and about 540 (0.36%) showed an effect of 50% or more. Some of the results follow.

test system: Plasmodium falciparum; experiment: Primary screen in NF54 nanoGlo assay, in single point, at 2uM, 72h; a lower Z score goes with more inhibition; type: functional, Erythrocyte; conditions: timepoint 72 hour

SMILES | % Inhibition [%] | Z score
Cc1cc(N(C)C)cc(C)c1NC(=O)N1CCCC[C@@H]1CCc1ccccc1 | -11 | 1.32
Cn1cc(-c2cn(Cc3cscn3)nn2)cn1 | 2 | -0.31
COc1cc2c(cc1OC)CN(C(=O)c1ccc(-n3cccn3)nn1)CC2 | 6 | -1.06
CC(C)(C)c1cnc(CN2CCC(C(=O)Nc3ncccn3)CC2)o1 | -7 | 0.85
Cn1cncc1CCC(=O)N[C@H]1CC2(CCCC2)Oc2ccccc21 | -6 | 0.73
CC(C)(C)NC(=O)CNC(=O)c1coc(CC2CC2)n1 | -6 | 1.03
O=C(c1cccc(-c2cn[nH]c2)c1)N1CCC(F)(F)CC1 | -4 | 0.62
CCS(=O)(=O)c1c[nH]c(=O)c(C(=O)N2CCc3cccc(C)c32)c1 | -2 | 0.38
Cc1n[nH]c(C2CCN(C3CCN(c4ccc(C)c(Cl)c4)CC3)CC2)n1 | 3 | -0.47
CCCn1c(-c2cccc(C(=O)NCc3ccc(C)c(C)c3)c2)nc2cccnc21 | -8 | 1.09
O=C(NS(=O)(=O)C1CCCCC1)c1ccnn1CC(F)(F)F | -7 | 0.95
O=C1N[C@@]2(CCCN(C(=O)C3CCC3)C2)N=C1c1ccccc1 | 0 | -0.09
CCCc1nc2cc(CCC(=O)NC3CCCC3)ccc2[nH]1 | -6 | 0.73
CN(C(=O)Cn1cnc2c(c1=O)CCC2)c1ccccc1 | -13 | 1.32
Cc1n[nH]cc1CNCc1csc(C(F)(F)F)c1 | 4 | -0.69
Cc1noc(C)c1CNCCc1ccccn1 | -10 | 1.39
CS(=O)(=O)C1(C(=O)NCCc2cccc3cccnc23)CCCC1 | 1 | -0.24
Cc1nnc(CN(C)C(=O)CCc2cccnc2)o1 | -3 | 0.49
CCn1ncc(C)c1NC(=O)CCc1ccnn1C | -14 | 2.63
Cc1cccc(OCCCN(C)C(=O)CCS(C)(=O)=O)c1C | -4 | 0.55
O=C(NC1CC1)c1cc2ccccc2cc1O | -2 | 0.26

SMILES | % Inhibition [%] | Z score
O=C1CC[C@H](NC(=O)Cc2ccc(Cl)c(Cl)c2)C(=O)N1 | -5 | 0.99
O=C(Nc1ccc2[nH]ncc2c1)c1cccc(CN2[C@@H]3CC[C@H]2C[C@@H](O)C3)c1 | -15 | 2.34
Cc1cccc(CN(C(=O)C2CCCC2)c2ccc(CC(=O)NCCN3CCCC3)cc2)c1 | 20 | -2.23
COc1ccc(CCN2Cc3ccc(N)cc3C2)cc1 | 1 | -0.09
CC(C)c1cc(CN2CCC3(CCC(=O)N(Cc4ccccn4)C3)CC2)on1 | 2 | -0.43
CCN1C(=O)[C@@H]2[C@H](C1=O)[C@H](C(=O)OC)N[C@@H]2c1cccc(C(F)(F)F)c1 | -7 | 0.8
O=C(O)c1ccc(F)c2c1CN(C(=O)[C@H]1C[C@H]3C=C[C@@H]1CC3)CC2 | 1 | -0.27
Cc1ccc(-c2cncc(C(=O)N3CCN(C)CC3)n2)c2cccnc12 | -4 | 0.61
CCc1ncc(C(=O)NCc2nnc(CC)o2)cn1 | -10 | 1.01
O=C(NCc1cnc2n1CCCC2)c1ccc(OC(F)F)nc1 | -6 | 0.74
Cc1ccc(CN2CCc3nc(N4CCOCC4)ncc3C2)cc1C | -9 | 1.32
COc1cc2ccc1OCC(=O)N[C@@H](C)C(=O)N(C)CCCCN(C(=O)CCc1cccnc1)CCCNC2=O | -5 | 0.82
CC(NC1CCN(C(C)C)CC1)C(O)Cc1ccccc1 (stereo not drawn) | 4 | -0.63
CCC[C@H](NC(=O)Cc1ccc(F)cc1Cl)c1nnn[nH]1 | -16 | 1.77
O=S(=O)(CC[C@H]1CCCO1)N1CCCC1 | -4 | 0.52
CC(=O)N[C@H](C(=O)Nc1ccc(Cl)cc1F)C(C)C | -6 | 0.99
O=S(=O)(N[C@H]1CCCN(c2ccccc2F)C1)c1cccc2c1OCCO2 | -7 | 0.75
Cc1cccc(NC(=O)N2CCN(C(=O)c3ccccc3-n3cnnn3)CC2)c1 | -6 | 0.72
CCCc1ccc(CN2CC[C@H](NC(=O)c3ccncc3)[C@@H](O)C2)o1 | -5 | 0.82
COc1cccc(CO[C@@H]2CN(C(=O)Cn3cncn3)CC(=O)N(CC(C)C)C2)c1 | -15 | 1.78
CCn1c(=O)c(C(=O)NC[C@H]2CCCO2)c(O)c2ccccc21 | -10 | 0.91

SMILES | % Inhibition [%] | Z score
O=C1CN(CC(=O)Nc2cccc3ccccc23)CCN1 | -10 | 1.56
CC(C)(C)OC(=O)N1C[C@@H]2OCCN(C(=O)C3CC=CCC3)[C@@H]2C1 (stereo partly drawn) | -3 | 0.25
O=C(O)CCc1ccc(-c2ncc(F)c(N3CCOCC3)n2)cc1 | -3 | 0.62
Cc1cn(-c2cccnc2)nc1NC(=O)N1CC[C@H](c2cccnc2)C1 | -6 | 0.83
CC(F)(F)c1ccc(C(=O)N[C@H]2C[C@@](C)(O)C2)cn1 | -4 | 0.49
Cc1cc([O-])c2n(Cc3ccccc3Cl)nc[n+]2n1 | 8 | -1.07
COc1ccc([C@H]2CC(=O)Nc3c2ncn3-c2ccccc2F)cc1OCC(N)=O | -12 | 1.48
Cc1c(CNC(=O)c2[nH]ncc2C(F)(F)F)cnn1C | -2 | 0.37
CC1CC(c2ccccc2)C(C)N1C(=O)C1CC1(Cl)Cl (stereo not drawn) | -7 | 0.62
Cc1cc(-c2ccncc2)nn1CCNC(=O)N1CCNC1=O | 4 | -0.51
COc1ccc(-n2nc(C(=O)N3CCCCCC3)nc2-c2ccccc2)cc1 | -12 | 2.34
CCOC(=O)C(=O)Nc1cc(C(=O)OC)cc(C(=O)OC)c1 | -5 | 0.78
O=C1COc2ccc(S(=O)(=O)N[C@H]3CCOc4ccccc43)cc2N1 | -2 | 0.36
Cc1ccc(C(=O)N2CCc3c(c(CCC(=O)N4CCCCC4)nn3C)C2)cn1 | -12 | 1.55
CCn1cc(S(=O)(=O)Nc2sccc2C(=O)NC)cn1 | 7 | -0.89
CC(=O)N(C1CCOCC1)[C@H]1CCN(C(=O)Nc2ccc(C)cc2C)C1 | 28 | -3.2
C[C@@H]1CC[C@H](C)N1S(=O)(=O)c1sc2c(c1C(=O)O)CCNC2 | -9 | 1.56
CC(C)(CCC(=O)NC1CCCCC1)C(=O)NC1CCCCC1 | -5 | 0.82
Cc1ccc(CNC(=O)Cc2cccs2)s1 | -6 | 0.83
CC(=O)N1CCN(C2CN(CC(C#N)CCC#N)CC2C)CC1 (stereo not drawn) | -8 | 0.92
O=C(NC1CCCCC1)c1ccc(NS(=O)(=O)c2cccs2)cc1O | 4 | -0.34

SMILES | % Inhibition [%] | Z score
O=C1C2C3C=CC(C3=C(c3ccccc3)c3ccccc3)C2C(=O)N1c1cccc2ccccc12 (stereo not drawn) | 20 | -2.52
O=C(NCc1cc(F)cc(F)c1)C1CCN(c2cnc(N3CCOCC3)nc2)CC1 | -9 | 1.08
CCc1cccc2c1NC(=O)[C@]21[C@@H]2C(=O)N(Cc3ccc4c(c3)OCO4)C(=O)[C@@H]2[C@@H]2CCCN21 | -14 | 1.81
Cc1cc(C)nc(O[C@H]2CCN(C(=O)CN3CCN(c4ccccc4)C3=O)C2)n1 | -10 | 1.49
CC(NC(C)c1nnnn1C)c1c(F)cccc1F (stereo not drawn) | 2 | -0.2
C=CCCC(=O)N1CC(NC(=O)C(F)(F)F)CCC1C(F)(F)F (stereo not drawn) | 2 | -0.23
COc1ccc(F)c(CN2CCC[C@@]3(CCN(CCc4ccccc4)C3)C2=O)c1 | -13 | 2.26
CC(C)n1ccnc1CNC(=O)[C@]1(c2ccccc2)CC12CCCC2 | -11 | 2.18
Cc1ccc(CNc2cnc3c(c2)COCC3)s1 | 2 | -0.21
COCCn1c(C)cnc1C[C@H]1CCN(C(=O)Nc2ccc(C)c(C)c2)C1 | 1 | -0.16
COCCN(Cc1ccnn1C)C(=O)[C@@H]1COCCN1C | -10 | 1.38
CN(CCc1cccc2ccccc12)C(=O)C1CC(O)CN1 (stereo not drawn) | 4 | -0.44
COc1ccnc(NCCn2c(C)nc3ccccc32)n1 | 0 | 0.02
Cc1ccsc1CN(C)C(=O)c1ccccc1-c1nccn1C | -5 | 0.8
CC1CCN([C@H](NC(=O)c2ccc(C(C)(C)C)cc2)C(Cl)(Cl)Cl)CC1 | -2 | 0.34
C#CCOC[C@@H](O)CN(Cc1ccco1)Cc1c(-c2ccccc2)noc1N1CCOCC1 | -6 | 1.29
COc1ccc(C(=O)N2CCC3(CC2)OC[C@@H](C(=O)NCc2ccco2)N3C(=O)c2ccccc2)cc1 | -10 | 1.49
Cc1cc(NC(=O)c2nnn(-c3nccs3)c2C)no1 | -17 | 3.18
O=C(CCOc1ccccc1)N1CC(=O)N(CC(F)(F)F)C1 | -3 | 0.53
Nc1ccc(N2C(=O)C3C(C2=O)[C@H]2CC[C@@H]3C2)cc1 (stereo partly drawn) | -4 | 0.71
CN(c1cc([C@H]2CCOC2)ncn1)C1CCCCC1 | -9 | 1.7
